Among all 310,000 compounds or so, about 2,200 (0.71%) showed an effect of 50% or more. The effect is printed as a negative number. The list shows a part of the results.

human ether-à-go-go-related gene (hERG) potassium channel, sequence (Q12809 whole entry, looked up): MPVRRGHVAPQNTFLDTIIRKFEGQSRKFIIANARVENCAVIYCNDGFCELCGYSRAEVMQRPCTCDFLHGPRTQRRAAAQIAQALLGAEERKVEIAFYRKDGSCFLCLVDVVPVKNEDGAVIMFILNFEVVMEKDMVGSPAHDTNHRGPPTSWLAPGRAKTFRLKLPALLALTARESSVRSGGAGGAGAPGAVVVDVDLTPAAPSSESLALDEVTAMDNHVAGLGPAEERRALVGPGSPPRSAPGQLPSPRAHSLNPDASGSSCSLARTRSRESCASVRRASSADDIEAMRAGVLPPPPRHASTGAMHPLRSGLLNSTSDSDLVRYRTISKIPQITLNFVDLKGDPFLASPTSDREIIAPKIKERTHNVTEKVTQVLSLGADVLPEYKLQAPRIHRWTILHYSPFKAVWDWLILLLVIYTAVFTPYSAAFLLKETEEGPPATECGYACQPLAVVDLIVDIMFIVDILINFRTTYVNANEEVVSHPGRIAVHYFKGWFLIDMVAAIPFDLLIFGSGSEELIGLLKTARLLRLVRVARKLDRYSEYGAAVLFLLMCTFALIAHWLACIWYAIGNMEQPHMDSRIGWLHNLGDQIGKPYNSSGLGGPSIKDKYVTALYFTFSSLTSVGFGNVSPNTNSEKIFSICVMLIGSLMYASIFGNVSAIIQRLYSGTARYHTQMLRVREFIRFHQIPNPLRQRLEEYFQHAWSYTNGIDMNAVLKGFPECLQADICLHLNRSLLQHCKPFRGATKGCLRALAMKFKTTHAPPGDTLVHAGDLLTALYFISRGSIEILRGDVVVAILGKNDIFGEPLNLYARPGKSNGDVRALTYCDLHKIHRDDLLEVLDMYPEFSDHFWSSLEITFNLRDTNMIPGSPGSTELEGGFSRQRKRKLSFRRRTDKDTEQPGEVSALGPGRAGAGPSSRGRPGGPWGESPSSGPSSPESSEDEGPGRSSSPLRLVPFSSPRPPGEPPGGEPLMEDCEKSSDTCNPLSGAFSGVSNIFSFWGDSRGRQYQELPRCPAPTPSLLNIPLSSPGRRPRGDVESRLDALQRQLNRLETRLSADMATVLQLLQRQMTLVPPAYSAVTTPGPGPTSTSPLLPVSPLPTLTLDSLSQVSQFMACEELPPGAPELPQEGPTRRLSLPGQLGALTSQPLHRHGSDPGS

The assay concerns the target human ether-à-go-go-related gene (hERG) potassium channel (human, UniProt Q12809). In words: primary screen, population patch clamp on CHO cells stably expressing hERG.
For `CCCOC(=O)Cc1c(O)c2ccccc2[nH]c1=O`, the “hERG current change (%, negative = inhibition) at 1uM” value turned out to be 13.6%. For `Cc1cccc(NC(=O)c2ccccc2[N+](=O)[O-])n1` the value was 13.1%. For `O=C(c1ccccc1)N1CCCC(c2nc3c(nnn3Cc3ccccc3)c(=O)[nH]2)C1` (stereo not drawn) the value was 4.03%; for `CCCc1nc2oc3c(NCC4CCCO4)ncnc3c2c2c1COC(C)(C)C2` (stereo not drawn), -1.47%. `CC(C)C1Nc2ccc(S(=O)(=O)N3CCOCC3)cc2NC1=O` (stereo not drawn): the “hERG current change (%, negative = inhibition) at 1uM” value stood at 13.5%. Then `O=C1c2ccccc2NC(c2ccc(Br)s2)N1O` (stereo not drawn), with 9.82%; and `CS(=O)(=O)N(CC(=O)Nc1ccc(S(=O)(=O)N2CCCC2)cc1)c1ccccc1`, with 19%. For `O=C(NCCNC(=O)c1ccccc1Cl)c1ccco1` the value was 18.9%; for `Nc1c(-c2ccc(Cl)cc2)cnn1C1CCS(=O)(=O)C1` (stereo not drawn), 0.195%.

Take `O=C(CSc1nccc(=O)[nH]1)NN(c1ccccc1)c1ccccc1`: the “hERG current change (%, negative = inhibition) at 1uM” value came to 9.88%. `CCOc1ccc(CC(=O)N2N=C(C)CC2(O)C(F)(F)F)cc1` (stereo not drawn): the “hERG current change (%, negative = inhibition) at 1uM” value is on record as 6.72%. Then `CC(=NCCCO)c1c(O)n(Cc2ccccc2)c(=O)[nH]c1=O`, with 10.2%; and `CCN(CC)CCCN1C(=O)c2oc3ccccc3c(=O)c2C1c1cccs1` (stereo not drawn), with 18.7%. `COc1cc(/C=C2/C(=O)NN(c3ccccc3)C2=O)cc(Br)c1O`: the “hERG current change (%, negative = inhibition) at 1uM” value turned out to be 13.9%. For `CCCn1c(Sc2nnnn2-c2ccccc2)n[nH]c1=O` the value was 9.94%; for `Cc1ccc(/C=C/C(=O)O)cc1S(=O)(=O)N(CCO)CCO`, 10.6%. For `O=S(=O)(NC1CC2CCC1C2)c1ccc(Cl)cc1` (stereo not drawn) the value was 15.8%.

`COc1cccc(-n2cnc3sc(C)cc3c2=O)c1`: the “hERG current change (%, negative = inhibition) at 1uM” value amounted to 5.64%. For the compound `CN(C(=O)COC(=O)C1CCN(S(=O)(=O)c2c(Cl)cccc2Cl)CC1)C1CCS(=O)(=O)C1` (stereo not drawn), the “hERG current change (%, negative = inhibition) at 1uM” value came out at 9.29%.

Regarding `Cc1ccc(N2N=C(c3ccc(Br)cc3)CCC2=O)cc1`, the “hERG current change (%, negative = inhibition) at 1uM” value was 10.3%. Then `O=C1c2ccccc2NC(c2ccccc2)N1Cc1ccco1` (stereo not drawn), with 3.77%; and `COc1ccc(/C=N/NC(=S)Nc2ccccc2)cc1COc1ccc(F)cc1F`, with 13.5%. As to `COC(=O)c1cc2oc3ccccc3c2n1CC(=O)Nc1ccccc1OC`, the “hERG current change (%, negative = inhibition) at 1uM” value came to 8.98%. For `Cc1c(NC(=O)COC(=O)C2(c3ccc(F)cc3)CCCC2)c(=O)n(-c2ccccc2)n1C` the value was 2.46%; for `O=C(O)CCc1ccc(-c2ccc(Cl)cc2)n1CC(=O)Nc1ccccc1`, 15.7%.

In the case of `O=C(COC(=O)c1ccc(Br)o1)Nc1ncc([N+](=O)[O-])s1`, the “hERG current change (%, negative = inhibition) at 1uM” value is recorded as 11.1%. Consider `Cc1ccccc1-c1nc(-c2ccc(Br)o2)no1`, for which the “hERG current change (%, negative = inhibition) at 1uM” value was found to be 5.73%. Then `O=C(O)c1cccc2cc(-c3ccccc3)oc(=O)c12`, with 13.5%. Turning to `CCOc1ccc(NC(=O)C2CCN(S(=O)(=O)c3c(C)n[nH]c3C)CC2)cc1`, the “hERG current change (%, negative = inhibition) at 1uM” value came to 2.16%. Then `O=C(CSc1nnnn1-c1ccc(F)cc1)c1ccc(O)c(O)c1`, with -12%; and `O=C(CCc1ccccc1)NNC(=O)Nc1ccccc1`, with 8.86%; and `CC(NS(=O)(=O)/C=C/c1ccccc1)c1ccccc1` (stereo not drawn), with 8.19%. Take `Cc1cc(C)nc(N(C#N)CCOc2ccc(Cl)cc2)n1`: the “hERG current change (%, negative = inhibition) at 1uM” value was determined as 10.5%. For `CC(C)(C)NC(=O)NC(=O)CN1CCN(S(=O)(=O)/C=C/c2ccccc2)CC1` the value was 15.2%; for `Cc1nnc(SCc2ccc(C(=O)O)cc2)s1`, 0.773%. For `COc1cccc(C(=O)CC(C(=O)O)c2ccc(Cl)cc2)c1` (stereo not drawn) the value was 15.4%; for `CS(=O)(=O)c1[nH]nc(-c2ccccc2Cl)c1C#N`, 11.5%.

In the case of `CC(C)OC(=O)C1C(=O)CC(C)(O)C(C(=O)OC(C)C)C1c1ccc([N+](=O)[O-])cc1` (stereo not drawn), the “hERG current change (%, negative = inhibition) at 1uM” value was determined as 7.14%. Then `Cc1ccc(Sc2ncccc2N)cc1`, with 13.3%; and `CC(=O)N/C(N)=N/c1nc2cc([N+](=O)[O-])ccc2o1`, with 12.4%. Then `COc1nc(-c2cccs2)cc(-c2ccc(C)cc2)c1C#N`, with 20.2%; and `NC(=O)c1ccc[n+](Cc2ccc(-c3ccccc3)cc2)c1.[Cl-]`, with 9.77%; and `O=C(NCCCN1CCOCC1)C1CC(=O)N(C2CCCCC2)C1` (stereo not drawn), with 11%.

With `CCC(=O)N1CCc2cc(S(=O)(=O)NCCC(=O)Nc3cc(C)cc(C)c3)ccc21`, the “hERG current change (%, negative = inhibition) at 1uM” value is listed as 8.68%.

In the case of `COc1ccc(C(C)NC(=O)C23CC4CC(CC(C4)C2)C3)cc1OC` (stereo not drawn), the “hERG current change (%, negative = inhibition) at 1uM” value is 12.4%.

Turning to `Cc1cc(C(=O)CSc2nnc(-c3ccc(OC(F)F)cc3)o2)c(C)n1Cc1cccs1`, the “hERG current change (%, negative = inhibition) at 1uM” value is recorded as 24.7%. On to `CCC(CC)C1=NN2C(=N)/C(=C\c3cc(C)n(-c4cccc(C)c4)c3C)C(=O)N=C2S1`, for which the “hERG current change (%, negative = inhibition) at 1uM” value amounted to 5.59%. For `CCOC(=O)C(=O)Nc1ncc(Cl)s1` the value was 11.1%.

Take `CCCn1c(=N)n(CC(O)c2ccco2)c2ccccc21.Cl` (stereo not drawn): the “hERG current change (%, negative = inhibition) at 1uM” value was -13.8%.

`CC(=O)Nc1ccc(S(=O)(=O)N2CCC(N(C)CCC(C)C)CC2)cc1.Cl`: the “hERG current change (%, negative = inhibition) at 1uM” value is recorded as -15.2%. On to `COc1ccc2cc(CN(C(=O)Nc3ccccc3)C3CCCC3)c(=O)[nH]c2c1`, for which the “hERG current change (%, negative = inhibition) at 1uM” value is -19.5%. Then `CCOc1ccc(C(=O)CN2CCN(S(=O)(=O)c3ccc(F)cc3)CC2)cc1`, with -13.8%. For `Cc1cc(NC(=O)c2c(-c3c(Cl)cccc3Cl)noc2C)n(C)n1` the value was 14.7%; for `C=CCN1C(=O)N(c2ccc(F)cc2)C(=O)C1CC(=O)Nc1ccc(Cl)cc1` (stereo not drawn), 16.9%; for `CC(C)c1ccc(CC(NC(=O)c2ccccc2)C(=O)NCC(=O)O)cc1` (stereo not drawn), 9.01%.

Take `O=S(=O)(NC(=S)NC1CCCCC1)c1ccc(Br)cc1`: the “hERG current change (%, negative = inhibition) at 1uM” value amounted to 11.1%. For `CS(=O)(=O)c1ccc(C(=O)N2CCN(Cc3ccccc3)CC2)cc1` the value was -20.6%. Then `CCCC(=O)n1nc(-c2ccc(OC)cc2)nc1N`, with 0.27%; and `CCOC(=O)c1ccc2c(c1)nc(SCc1cn3ccsc3n1)n2CC`, with -2.03%. Then `COc1ccc2[nH]c(=O)c(CN(CCN(C)C)C(=O)NCc3ccccc3)cc2c1`, with 13.8%; and `Cc1c(NC(=O)c2ccc3c4c(cccc24)CC3)c(=O)n(-c2ccccc2)n1C`, with 15.3%. Turning to `COc1ccc(C(=O)NNC(=O)c2ccccc2[N+](=O)[O-])cc1[N+](=O)[O-]`, the “hERG current change (%, negative = inhibition) at 1uM” value is listed as -0.396%. Consider `COC(=O)CN1C(=O)Nc2ccc(Cl)cc2C1c1ccccc1` (stereo not drawn), for which the “hERG current change (%, negative = inhibition) at 1uM” value turned out to be 22.6%. Then `O=C1NC(=S)N(C(=O)c2ccc(F)cc2)/C1=C/c1cccnc1`, with 6.14%.

Consider `CN(C)C(=O)c1cn(-c2ccccc2)nc1-c1cc2ccccc2oc1=O`, for which the “hERG current change (%, negative = inhibition) at 1uM” value was -5.37%. For `C/C(N)=C(/C#N)C(=O)COC(=O)[C@@H](NC(=O)c1ccccc1Cl)C(C)C` the value was 7.48%; for `COc1ccc(OC)c(NC(=O)CSc2ccc3nnc(-c4cccnc4)n3n2)c1`, -19.3%. Then `O=C(OCc1nnc(-c2ccccc2)o1)c1cccnc1Cl`, with 9.52%; and `CN(C)CCN(C(=O)CN1C(=O)c2ccccc2C1=O)c1nc2cc3c(cc2s1)OCO3.Cl`, with 7.04%.

`COc1ccccc1NC(=O)NCc1ccc(C)n1C`: the “hERG current change (%, negative = inhibition) at 1uM” value came out at 15.5%.

In the case of `CC(C)N(C(=O)CSc1nc2ccccc2n1-c1ccccc1)C(C)C`, the “hERG current change (%, negative = inhibition) at 1uM” value was 7.89%. Take `CCOC(=O)N1CCN(c2nc(-c3ccccc3)c3cc(C)ccc3n2)CC1`: the “hERG current change (%, negative = inhibition) at 1uM” value came out at 8.83%.

For the compound `COc1ccc(NS(=O)(=O)c2cn(C)c(=O)n(C)c2=O)c(OC)c1`, the “hERG current change (%, negative = inhibition) at 1uM” value came out at 10.7%. For `O=C(c1ccc(F)cc1)c1c[nH]c(C(=O)NCc2cccnc2)c1` the value was 12.1%; for `O=C(Oc1coc(CSc2ncccn2)cc1=O)c1ccco1`, 8.47%; for `O=C(CSc1ccc2nnc(CCNC(=O)c3ccccc3)n2n1)NCc1ccc(F)cc1`, 10.4%. With `Cc1ccccc1-c1noc(C23CC4CC(CC(C4)C2)C3)n1`, the “hERG current change (%, negative = inhibition) at 1uM” value is recorded as 7.35%. For `COc1ccc(CCC(=O)OCC(=O)Nc2ccc3[nH]c(=O)[nH]c3c2)cc1` the value was 1.47%; for `CC(=O)Nc1nnc(Cc2c[nH]c3ccccc23)s1`, 11.8%. `Cc1cc(=O)n2[nH]c(C(F)(F)F)c(-c3ccccc3)c2n1`: the “hERG current change (%, negative = inhibition) at 1uM” value worked out at 8.36%.

For the compound `Cc1cccn2c(=O)c3cc(C(=O)NCCc4ccccc4)c(=N)n(CC4CCCO4)c3nc12` (stereo not drawn), the “hERG current change (%, negative = inhibition) at 1uM” value is -91%. Regarding `COc1ccc(C(C)C)cc1S(=O)(=O)N1CCN(C)CC1`, the “hERG current change (%, negative = inhibition) at 1uM” value is reported as 15.2%. Then `CC(OC(=O)c1cnccn1)C(=O)Nc1nc(-c2cccc([N+](=O)[O-])c2)cs1` (stereo not drawn), with 8.07%; and `COc1ccc2c(c1OC)C(=O)N(c1ccccn1)C2`, with 3.36%. Then `COc1ccc(C(CNC(=O)CCC(=O)c2ccc(C)s2)N2CCOCC2)cc1` (stereo not drawn), with 8.49%; and `O=C(Nc1ccc(F)cc1F)c1ccc(S(=O)(=O)N2CCCCC2)cc1`, with 7.73%. As to `COc1ccc(SN=C2C(C)=CC(=O)C=C2C)cc1`, the “hERG current change (%, negative = inhibition) at 1uM” value was determined as 13.8%. Then `Cc1ccc(NC(=O)Cc2ccsc2)cc1Cl`, with 7.85%. On to `CC(C)(CO)N=Cc1c(O)[nH]c2ccccc12`, for which the “hERG current change (%, negative = inhibition) at 1uM” value is reported as -11.6%.

`Cc1ccccc1C(OCCN(C)C)C1CCCCC1.O=C(O)C(=O)O` (stereo not drawn): the “hERG current change (%, negative = inhibition) at 1uM” value is 7.86%.
